Data taken from publication PMC4336329 (PLoS ONE, 2015).
About 14,000 (4.5%) of roughly 310,000 compounds showed an effect of 50% or more. The effect is printed as a negative number. The list shows a part of the results. Where a SMILES comes first, the peptide text is derived from it. The star is where a group is joined. Boc = CC(C)(C)OC(=O)*; OtBu = CC(C)(C)O*; tBu = CC(C)(C)*

molecular target: human ether-à-go-go-related gene (hERG) potassium channel (human, UniProt Q12809); assay: primary screen, population patch clamp on CHO cells stably expressing hERG
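Further: peak tail current of the secondary pulse compared with the same well before compound.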

Chain of human ether-à-go-go-related gene (hERG) potassium channel (Q12809 whole entry, looked up): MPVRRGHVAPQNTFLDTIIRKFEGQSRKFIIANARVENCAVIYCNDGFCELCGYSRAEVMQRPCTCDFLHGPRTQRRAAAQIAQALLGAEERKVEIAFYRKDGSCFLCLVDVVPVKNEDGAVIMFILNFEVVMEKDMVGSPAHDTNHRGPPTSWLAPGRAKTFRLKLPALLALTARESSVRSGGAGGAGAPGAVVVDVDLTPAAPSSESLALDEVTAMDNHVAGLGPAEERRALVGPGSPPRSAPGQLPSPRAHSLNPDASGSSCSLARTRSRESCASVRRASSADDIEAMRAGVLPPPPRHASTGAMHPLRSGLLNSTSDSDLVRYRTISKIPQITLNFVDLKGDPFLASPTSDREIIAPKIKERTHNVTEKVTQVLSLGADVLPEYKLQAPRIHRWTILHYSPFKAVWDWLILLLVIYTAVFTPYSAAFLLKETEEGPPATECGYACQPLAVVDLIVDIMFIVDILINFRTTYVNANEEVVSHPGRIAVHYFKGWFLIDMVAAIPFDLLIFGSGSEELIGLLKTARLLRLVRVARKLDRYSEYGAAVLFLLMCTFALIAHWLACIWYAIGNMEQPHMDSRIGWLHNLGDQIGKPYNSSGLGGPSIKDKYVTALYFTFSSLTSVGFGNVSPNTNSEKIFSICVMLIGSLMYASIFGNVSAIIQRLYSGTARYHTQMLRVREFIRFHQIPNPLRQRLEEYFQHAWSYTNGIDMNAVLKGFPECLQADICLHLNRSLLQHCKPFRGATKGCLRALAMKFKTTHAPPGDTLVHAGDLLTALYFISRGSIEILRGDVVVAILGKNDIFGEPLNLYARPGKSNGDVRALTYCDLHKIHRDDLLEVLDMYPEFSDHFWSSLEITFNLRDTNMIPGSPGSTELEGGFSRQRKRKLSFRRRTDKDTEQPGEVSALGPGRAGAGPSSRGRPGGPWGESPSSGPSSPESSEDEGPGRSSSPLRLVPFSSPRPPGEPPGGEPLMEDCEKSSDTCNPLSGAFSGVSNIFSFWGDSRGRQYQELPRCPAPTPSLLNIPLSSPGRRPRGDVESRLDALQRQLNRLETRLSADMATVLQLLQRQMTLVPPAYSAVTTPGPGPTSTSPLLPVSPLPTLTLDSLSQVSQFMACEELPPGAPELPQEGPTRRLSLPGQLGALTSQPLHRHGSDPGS

First: COc1cccc(COCC(O)CN2CCC(C(N)=O)CC2)c1 (stereo not drawn)
Second: CCOC(=O)C1CCCN(CCc2ccccc2)C1 (stereo not drawn)
The “hERG current change (%, negative = inhibition) at 10uM” value of the first is higher: 12.3% for the first, 1% for the second.

Going from Cc1ccc2nc(NC(=O)C3CCCN(S(=O)(=O)c4cnc[nH]4)C3)sc2c1 (stereo not drawn) to Cc1ccc(S(=O)(=O)N2CCCCC2)cc1NC(=O)COC(=O)Cc1cccc(C(F)(F)F)c1, the “hERG current change (%, negative = inhibition) at 10uM” value rises from -10.1% to -9.57%.

Going from Cc1cc(N/N=C/c2ccccc2O)nc(N2CCOCC2)n1 to CCn1c(CC(=O)Nc2ccc(F)cc2)nnc1SCC(=O)N1CCOCC1, the “hERG current change (%, negative = inhibition) at 10uM” value rises from 6.96% to 11.1%.

Compared with CN1CCN(/C=N/C2=C(C#N)C(c3ccccc3)C3=C(CC(C)(C)CC3=O)O2)CC1 (stereo not drawn), CN1CCN(S(=O)(=O)c2cc([N+](=O)[O-])ccc2Cl)CC1 is higher in “hERG current change (%, negative = inhibition) at 10uM” value: -17.6% for the first, 5.56% for the second.

Going from O=C(O)c1cc2ncc(CCO)cn2n1 to CC(O)c1nc2ccc(C(=O)O)cc2[nH]1.Cl (stereo not drawn), the “hERG current change (%, negative = inhibition) at 10uM” value falls from 22.1% to 3.68%.

First: Clc1ccc(OCc2cn3ccccc3n2)c2ncccc12
Second: O=C(CNC(=O)c1ccc2ccccc2c1)Nc1ncccc1O
The “hERG current change (%, negative = inhibition) at 10uM” value of the first is lower: -30.1% for the first, -7.67% for the second.

Going from CC(=O)N1CCc2cc(Br)cc(S(=O)(=O)NCCCN(C)Cc3ccccc3)c21 to CN(CC(=O)O)S(=O)(=O)c1ccc2oc3ccccc3c2c1, the “hERG current change (%, negative = inhibition) at 10uM” value rises from -38.3% to 10.5%.

Compared with Cc1nnc(SCC(=O)Nc2ccc3c(c2)OCO3)n(N)c1=O, Cc1cnc(NC(=O)CSc2ncc(-c3ccccc3)n2Cc2ccco2)s1 is lower in “hERG current change (%, negative = inhibition) at 10uM” value: 11.3% for the first, 0.816% for the second.

Going from COc1ccc(/C=N/NC(=O)CN(C)C(=O)OCc2ccccc2)cc1OC to CCOC(=O)c1ccccc1NC(=O)CN(c1cccc(OC)c1)S(C)(=O)=O, the “hERG current change (%, negative = inhibition) at 10uM” value falls from 9.1% to -10.4%.

Compared with CCN1CCN(c2cn[nH]c(=O)c2Cl)CC1, COC(=O)N1CCN(C(=O)Cc2ccc(Cl)c(Cl)c2)C(CN2CCCC2)C1.O=C(O)/C=C/C(=O)O (stereo not drawn) is lower in “hERG current change (%, negative = inhibition) at 10uM” value: 21.4% for the first, -29.5% for the second.

First: COc1cccc(/C=C/C(=O)c2c(O)cc(C)oc2=O)c1O
Second: COc1ccc2[nH]c(=O)c(CNc3ccccc3OC)cc2c1
The “hERG current change (%, negative = inhibition) at 10uM” value of the first is higher: 17.7% for the first, -7.66% for the second.

Going from CC(OC(=O)Cc1ccsc1)C(=O)Nc1ccc(Cl)cn1 (stereo not drawn) to COc1ccc(COc2ccsc2C(=O)Nc2ccc(Cl)cc2)cc1, the “hERG current change (%, negative = inhibition) at 10uM” value rises from -1.88% to 7.17%.

Going from COc1ccc(NC(=O)CN(C)C(=O)c2cc(-c3ccccc3)nc3ccccc23)cc1 to Cc1cc(-c2ccccc2)nc(SCc2ccc(C(=O)O)cc2)n1, the “hERG current change (%, negative = inhibition) at 10uM” value rises from -21.4% to 23.8%.

Going from Cc1c(N=C2C(=O)Nc3ccccc32)c(=O)n(-c2ccccc2)n1C to CC(=O)OC1c2ccccc2C(=O)N1Cc1ccccc1Cl (stereo not drawn), the “hERG current change (%, negative = inhibition) at 10uM” value falls from 21.3% to -7.25%.

Compared with Cc1noc(C)c1COc1ccc(C(=O)NNC(=O)c2ccccc2)cc1, Cc1ccccc1Nc1nc(-c2sc(NC(=O)c3ccccc3)nc2C)cs1 is higher in “hERG current change (%, negative = inhibition) at 10uM” value: 11.5% for the first, 25.7% for the second.

Compared with O=C(O)C1CCC(CNCc2ccncc2)CC1 (stereo not drawn), O=C(O)C1C2C=CC3(CN(Cc4ccncc4)C(=O)C13)O2 (stereo not drawn) is lower in “hERG current change (%, negative = inhibition) at 10uM” value: 18.8% for the first, 18% for the second.

First: CCOC(=O)C1=C(C)NC(=O)NC1/C=C/c1ccccc1 (stereo not drawn)
Second: COc1ccc(NC(=O)C2=C(C)NC(=O)NC2c2cccs2)c(OC)c1 (stereo not drawn)
The “hERG current change (%, negative = inhibition) at 10uM” value of the first is lower: -2.72% for the first, 17.2% for the second.

Compared with N#Cc1ccccc1COC(=O)c1cccnc1N, O=C(COc1ccccc1)Nc1ccncc1Cl is lower in “hERG current change (%, negative = inhibition) at 10uM” value: 12.6% for the first, 6.33% for the second.

First: C=CCc1ccc(OCCOc2cccc(/C=N/n3cnnc3)c2)c(OC)c1
Second: N#Cc1cc([N+](=O)[O-])ccc1Oc1cccc(/C=N/NC(=O)c2ccc(Cl)cc2)c1
The “hERG current change (%, negative = inhibition) at 10uM” value of the first is lower: -26.2% for the first, -2.51% for the second.

Compared with O=S(=O)(NN=C1CCCCC1)c1ccccc1, O=C(NCC1CCN(S(=O)(=O)c2ccccc2)CC1)Nc1ccc(F)cc1 is lower in “hERG current change (%, negative = inhibition) at 10uM” value: 16% for the first, -1.58% for the second.

Compared with CC1(C)CC(=O)C(N=Nc2ccc(OC(F)F)cc2)=C(O)C1, O=C(CCNC(=O)c1ccco1)Nc1ccc(OC(F)F)cc1 is higher in “hERG current change (%, negative = inhibition) at 10uM” value: -57.6% for the first, -23.8% for the second.

Going from CC(C)(C)OCC(NC(=O)C(CC(N)=O)NC(=O)OC(C)(C)C)C(=O)OC(C)(C)C (stereo not drawn) (Boc-Asn-Ser(tBu)-OtBu; configuration not given here) to CCC(C)N(C(=O)COC(=O)C1C(C(=O)OC)=C(C)NC(C)=C1C(=O)OC)C1CCS(=O)(=O)C1 (stereo not drawn), the “hERG current change (%, negative = inhibition) at 10uM” value rises from 2.53% to 4.61%.

Compared with CCCCC(=O)Nc1ccc(C(=O)Nc2nc(CC(=O)OCC)cs2)cc1, CCC(=O)Nc1cc(C(=O)O)ccc1S(=O)(=O)c1ccc(C)cc1 is higher in “hERG current change (%, negative = inhibition) at 10uM” value: -18.2% for the first, 4.39% for the second.

Compared with COc1ccc2sc(-c3ccc(N(C)C)cc3)c(-c3cnc(OC)nc3)c2c1, COc1ccc2c(c1)C(=NN)c1cc(OC)ccc1-2 is lower in “hERG current change (%, negative = inhibition) at 10uM” value: 17.5% for the first, 11.5% for the second.

Compared with O=c1[nH]c2c(s1)C=Nc1ccccc1N2, Cc1cc(C(=O)CSc2nc3ccccc3c(=O)[nH]2)c(C)n1C is lower in “hERG current change (%, negative = inhibition) at 10uM” value: 13.2% for the first, -1.99% for the second.

Going from Cn1cc([N+](=O)[O-])c(C(=O)Nc2ccc(-c3nc4ccccc4[nH]3)cc2)n1 to Cc1c(/C=N/Nc2nc3ccccc3[nH]2)c2ccccc2n1C, the “hERG current change (%, negative = inhibition) at 10uM” value falls from 12.2% to -6.23%.

First: CCCOc1ccc(C(=O)OCC(=O)c2c(N)n(C)c(=O)n(C)c2=O)cc1OC
Second: CCN(CC)CCN1C(=O)C(O)=C(C(C)=O)C1c1ccc(OC)c(OC)c1 (stereo not drawn)
The “hERG current change (%, negative = inhibition) at 10uM” value of the first is higher: 15.8% for the first, 2.82% for the second.

First: CSCCC(C(=O)OC1CCOC1=O)N1C(=O)c2ccccc2C1=O (stereo not drawn)
Second: Cc1cc(C)cc(OCC(O)CN2CCC(CN3C(=O)c4cccc5cccc(c45)C3=O)CC2)c1.Cl (stereo not drawn)
The “hERG current change (%, negative = inhibition) at 10uM” value of the first is higher: 7.22% for the first, -70% for the second.

First: CN(CC(=O)Nc1c(Cl)cccc1Cl)C(=O)c1n[nH]c2ccccc12
Second: O=C(Nc1cccc(Cl)c1)Nc1ccccc1C(=O)NCc1ccco1
The “hERG current change (%, negative = inhibition) at 10uM” value of the first is lower: -6.33% for the first, 8.62% for the second.

Going from O=S(=O)(Cc1ccccc1)Nc1ccccc1 to O=C(NCCOc1ccccc1)C1Nc2ccc(C(F)(F)F)cc2C2c3ccccc3CC12 (stereo not drawn), the “hERG current change (%, negative = inhibition) at 10uM” value falls from 16% to 7.19%.

First: COC1=C/C(=C/c2c(N)n3cc(C)sc3nc2=O)C=CC1=O
Second: CCC(=O)Oc1ccc2c(c1)O/C(=C\c1ccco1)C2=O
The “hERG current change (%, negative = inhibition) at 10uM” value of the first is lower: -0.0296% for the first, 16.7% for the second.

Going from O=C(COC(=O)c1ccccc1NCCO)NCC1CCCCC1 to COC(=O)C1=NN[C@H](C(=O)OC)[C@H]1c1ccccc1, the “hERG current change (%, negative = inhibition) at 10uM” value rises from -8.14% to 14.2%.

Compared with CCOc1cc(/C=C/c2nc3ccccc3c(=O)[nH]2)ccc1O, CCc1cc(-c2n[nH]c(=S)n2-c2ccccc2C)cs1 is lower in “hERG current change (%, negative = inhibition) at 10uM” value: 13.4% for the first, -9.12% for the second.

Going from COc1ccc2[nH]c(=O)c(CN(Cc3cccnc3)C(=S)NCC3CCCO3)cc2c1 (stereo not drawn) to O=C(NCc1cccnc1)c1ccc(Cn2cc(C(F)(F)F)ccc2=O)cc1, the “hERG current change (%, negative = inhibition) at 10uM” value rises from -11.9% to 15.3%.

Going from COc1ncnc2c1oc1nc(C(C)C)c3c(c12)CC(C)(C)OC3 to COc1ccc(-c2nnc(SCc3c(C)noc3C)n2N)cc1OC, the “hERG current change (%, negative = inhibition) at 10uM” value falls from 9.43% to -3.18%.

Going from CNc1nc(-c2cccs2)cc(C(F)(F)F)c1C#N to Cn1c(-c2sc3cc(C(F)(F)F)cnc3c2-c2ccccc2)n[nH]c1=S, the “hERG current change (%, negative = inhibition) at 10uM” value rises from 3.45% to 20.1%.

Compared with CCCC(=O)Nc1cc(C(=O)N2CCC3(CC2)OCCO3)ccc1S(=O)(=O)c1ccc(C)cc1, Cc1oc(-c2ccc(Cl)cc2)nc1CS(=O)CC(=O)N1CCC2(CC1)OCCO2 (stereo not drawn) is higher in “hERG current change (%, negative = inhibition) at 10uM” value: -14% for the first, -11.4% for the second.

First: O=C(NCCN1C(=O)S/C(=C\c2ccc(Cl)c(Cl)c2)C1=O)c1cnccn1
Second: O=[N+]([O-])c1ccc(Cl)c(S(=O)(=O)Nc2cccc(-c3ccc(N4CCCC4)nn3)c2)c1
The “hERG current change (%, negative = inhibition) at 10uM” value of the first is higher: 1.98% for the first, -19.4% for the second.

First: CCCC12CN3CC(C)(CN(C1)C31C(=O)Nc3ccc(C)cc31)C2=O (stereo not drawn)
Second: Cc1ccc(N=Cc2cc(C)n(C3CCCC3)c2C)cc1
The “hERG current change (%, negative = inhibition) at 10uM” value of the first is lower: -1.83% for the first, 7.09% for the second.

First: CNC(=S)N1CCN(S(=O)(=O)c2ccc3ccccc3c2)CC1
Second: O=C(c1ccc([N+](=O)[O-])s1)N1CCc2ccccc21
The “hERG current change (%, negative = inhibition) at 10uM” value of the first is lower: -15.4% for the first, 20.8% for the second.

Going from CCOc1cccc(N(C(=O)C2COc3ccccc3O2)C(C(=O)NC2CCCCC2)c2ccc(O)cc2)c1 (stereo not drawn) to Cc1ccc(NC(=O)C2Oc3ccccc3OC2C)cc1 (stereo not drawn), the “hERG current change (%, negative = inhibition) at 10uM” value falls from 17.6% to 8.68%.

Going from COc1cccc(C2CC(c3cccs3)Nc3ncnn32)c1 (stereo not drawn) to CC(C)(C)NC(=O)c1ccc2c(c1)C1C3CCC(C3)C1C(c1ccccc1)N2 (stereo not drawn), the “hERG current change (%, negative = inhibition) at 10uM” value rises from -9.49% to 5.59%.

Going from Cc1cc(OC(C)C(=O)N/N=C/CC(C)c2ccccc2)ccc1Cl (stereo not drawn) to Cc1ccccc1NCC(=O)N/N=C/c1c(C)c(C(=O)c2ccc(Cl)cc2)n2ccccc12, the “hERG current change (%, negative = inhibition) at 10uM” value falls from 16.1% to -4.11%.

CCc1noc(C)c1C(=O)Nc1nc2c(F)cc(F)cc2s1 was tested, and the “hERG current change (%, negative = inhibition) at 10uM” value was 4.53%.
